Data: EPA's CvTdb concentration-time database
Further values from the same series stand in other lists.

Legend:
Rat [1] = assay: concentration in brain after dosing; conditions: 10 min; dosed: alpha/beta-Thujone mixture; 25 mg/kg; oral; Male; F344
Rat [2] = assay: concentration in brain after dosing; conditions: 5 min; dosed: alpha/beta-Thujone mixture; 50 mg/kg; oral; Male; F344
Rat [3] = assay: concentration in brain after dosing; conditions: 1.5 h; dosed: alpha/beta-Thujone mixture; 50 mg/kg; oral; Female; F344
Rat [4] = assay: concentration in brain after dosing; conditions: 2 min; dosed: alpha/beta-Thujone mixture; 50 mg/kg; oral; Male; F344
Rat [5] = assay: concentration in brain after dosing; conditions: 1.5 h; dosed: alpha/beta-Thujone mixture; 25 mg/kg; oral; Male; F344
Rat [6] = assay: concentration in brain after dosing; conditions: 6 h; dosed: alpha/beta-Thujone mixture; 25 mg/kg; oral; Female; F344
Rat [7] = assay: concentration in brain after dosing; conditions: 3 h; dosed: alpha/beta-Thujone mixture; 50 mg/kg; oral; Female; F344
Rat [8] = assay: concentration in brain after dosing; conditions: 2 min; dosed: alpha/beta-Thujone mixture; 25 mg/kg; oral; Female; F344
Rat [9] = assay: concentration in brain after dosing; conditions: 1 h; dosed: 76231-76-0; 3.0 mg/kg; iv; Male; F344
Rat [10] = assay: concentration in brain after dosing; conditions: 5 min; dosed: alpha/beta-Thujone mixture; 50 mg/kg; oral; Female; F344
Rat [11] = assay: concentration in brain after dosing; conditions: 0.25 h; dosed: 76231-76-0; 3.0 mg/kg; iv; Female; F344
Rat [12] = assay: concentration in brain after dosing; conditions: 0.5 h; dosed: alpha/beta-Thujone mixture; 25 mg/kg; oral; Female; F344
Rat [13] = assay: concentration in brain after dosing; conditions: 6 h; dosed: alpha/beta-Thujone mixture; 25 mg/kg; oral; Male; F344
Rat [14] = assay: concentration in brain after dosing; conditions: 10 min; dosed: alpha/beta-Thujone mixture; 25 mg/kg; oral; Male; F344; remark: listed apart in the source
Rat [15] = assay: concentration in plasma after dosing; conditions: 3 h; dosed: alpha/beta-Thujone mixture; 25 mg/kg; oral; Male; F344
Rat [16] = assay: concentration in plasma after dosing; conditions: 5 min; dosed: alpha/beta-Thujone mixture; 50 mg/kg; oral; Male; F344
Rat [17] = assay: concentration in plasma after dosing; conditions: 4 h; dosed: 76231-76-0; 3.0 mg/kg; iv; Male; F344
Rat [18] = assay: concentration in plasma after dosing; conditions: 2 min; dosed: alpha/beta-Thujone mixture; 25 mg/kg; oral; Male; F344
Rat [19] = assay: concentration in plasma after dosing; conditions: 20 min; dosed: 76231-76-0; 3.0 mg/kg; iv; Male; F344
Rat [20] = assay: concentration in plasma after dosing; conditions: 5 min; dosed: 76231-76-0; 3.0 mg/kg; iv; Female; F344
Rat [21] = assay: concentration in plasma after dosing; conditions: 20 min; dosed: 76231-76-0; 3.0 mg/kg; iv; Male; F344; remark: listed apart in the source
Rat [22] = assay: concentration in plasma after dosing; conditions: 6 h; dosed: alpha/beta-Thujone mixture; 50 mg/kg; oral; Female; F344
Rat [23] = assay: concentration in plasma after dosing; conditions: 0.75 h; dosed: 76231-76-0; 3.0 mg/kg; iv; Female; F344
Rat [24] = assay: concentration in plasma after dosing; conditions: 12 h; dosed: 76231-76-0; 3.0 mg/kg; iv; Male; F344
Rat [25] = assay: concentration in plasma after dosing; conditions: 4 h; dosed: 76231-76-0; 3.0 mg/kg; iv; Male; F344; remark: listed apart in the source
Rat [26] = assay: concentration in plasma after dosing; conditions: 3 h; dosed: 76231-76-0; 3.0 mg/kg; iv; Female; F344
Rat [27] = assay: concentration in plasma after dosing; conditions: 12 h; dosed: alpha/beta-Thujone mixture; 50 mg/kg; oral; Male; F344
Rat [28] = assay: concentration in plasma after dosing; conditions: 3 h; dosed: 76231-76-0; 3.0 mg/kg; iv; Female; F344; remark: listed apart in the source
Rat [29] = assay: concentration in plasma after dosing; conditions: 3 h; dosed: alpha/beta-Thujone mixture; 25 mg/kg; oral; Male; F344; remark: listed apart in the source
Rat [30] = assay: concentration in plasma after dosing; conditions: 3 h; dosed: alpha/beta-Thujone mixture; 50 mg/kg; oral; Female; F344
Rat [31] = assay: concentration in plasma after dosing; conditions: 0.5 h; dosed: 76231-76-0; 3.0 mg/kg; iv; Female; F344
Rat [32] = assay: concentration in liver after dosing; conditions: 8760 h; dosed: 3,3',4,4',5-pentachlorobiphenyl; 1000 mg/kg; oral; Male; Harlan Sprague Dawley
Rat [33] = assay: concentration in liver after dosing; conditions: 24 h; dosed: 3,3',4,4',5-pentachlorobiphenyl; 1000 mg/kg; oral; Female; F344
Rat [34] = assay: concentration in liver after dosing; conditions: 2208 h; dosed: 3,3',4,4',5-pentachlorobiphenyl; 1000 mg/kg; oral; Female; Harlan Sprague Dawley
Rat [35] = assay: concentration in liver after dosing; conditions: 2880 h; dosed: 3,3',4,4',5-pentachlorobiphenyl; 1000 mg/kg; oral; Female; Harlan Sprague Dawley
Rat [36] = assay: concentration in liver after dosing; conditions: 3 h; dosed: 3,3',4,4',5-pentachlorobiphenyl; 1000 mg/kg; oral; Female; F344
Rat [37] = assay: concentration in liver after dosing; conditions: 2 h; dosed: 3,3',4,4',5-pentachlorobiphenyl; 1000 mg/kg; oral; Female; F344
Rat [38] = assay: concentration in liver after dosing; conditions: 3 h; dosed: 3,3',4,4',5-pentachlorobiphenyl; 1000 mg/kg; oral; Female; F344; remark: listed apart in the source
Rat [39] = assay: concentration in liver after dosing; conditions: 288 h; dosed: 3,3',4,4',5-pentachlorobiphenyl; 1000 mg/kg; oral; Female; Harlan Sprague Dawley
Rat [40] = assay: concentration in liver after dosing; conditions: 7416 h; dosed: 3,3',4,4',5-pentachlorobiphenyl; 1000 mg/kg; oral; Male; F344
Rat [41] = assay: concentration in liver after dosing; conditions: 5088 h; dosed: 3,3',4,4',5-pentachlorobiphenyl; 1000 mg/kg; oral; Female; F344

Compound: CC(C)[C@]12CC(=O)[C@H](C)[C@H]1C2 [alpha-Thujone]
- concentration in brain (Rat [1]): 212 ng/g
- concentration in brain (Rat [2]): 668 ng/g
- concentration in brain (Rat [3]): 445 ng/g
- concentration in brain (Rat [4]): 25.6 ng/g
- concentration in brain (Rat [5]): 191 ng/g
- concentration in brain (Rat [6]): 92.7 ng/g
- concentration in brain (Rat [7]): 711 ng/g
- concentration in brain (Rat [8]): 45 ng/g
- concentration in brain (Rat [9]): 102 ng/g
- concentration in brain (Rat [10]): 471 ng/g
- concentration in brain (Rat [11]): 852 ng/g
- concentration in brain (Rat [12]): 1070 ng/g
- concentration in brain (Rat [13]): 23.1 ng/g
- concentration in brain (Rat [14]): 596 ng/g
- concentration in plasma (Rat [15]): 98 ng/mL
- concentration in plasma (Rat [16]): 474 ng/mL
- concentration in plasma (Rat [17]): 20.9 ng/mL
- concentration in plasma (Rat [18]): 10.8 ng/mL
- concentration in plasma (Rat [19]): 265 ng/mL
- concentration in plasma (Rat [20]): 634 ng/mL
- concentration in plasma (Rat [21]): 195 ng/mL
- concentration in plasma (Rat [22]): 251 ng/mL
- concentration in plasma (Rat [23]): 34.1 ng/mL
- concentration in plasma (Rat [24]): 5.32 ng/mL
- concentration in plasma (Rat [25]): 15.1 ng/mL
- concentration in plasma (Rat [26]): 10.1 ng/mL
- concentration in plasma (Rat [27]): 13 ng/mL
- concentration in plasma (Rat [28]): 11.9 ng/mL
- concentration in plasma (Rat [29]): 114 ng/mL
- concentration in plasma (Rat [30]): 138 ng/mL
- concentration in plasma (Rat [31]): 99.8 ng/mL

Compound: Clc1ccc(-c2cc(Cl)c(Cl)c(Cl)c2)cc1Cl [3,3',4,4',5-pentachlorobiphenyl]
- concentration in liver (Rat [32]): 696 pg/g
- concentration in liver (Rat [33]): 15300 pg/g
- concentration in liver (Rat [34]): 3830 pg/g
- concentration in liver (Rat [35]): 2630 pg/g
- concentration in liver (Rat [36]): 7350 pg/g
- concentration in liver (Rat [37]): 3820 pg/g
- concentration in liver (Rat [38]): 6440 pg/g
- concentration in liver (Rat [39]): 8280 pg/g
- concentration in liver (Rat [40]): 975 pg/g
- concentration in liver (Rat [41]): 998 pg/g
